Among the data in PubChem BioAssay AID1346428 (National Center for Advancing Translational Sciences (NCATS), 2018) are activation values, retold here.

Values joined by “and” are separate entries in the source; they are usually repeats but may differ in a detail not shown here. Identical values can stand only once. Screen size: about 48,000 compounds; about 1,200 (2.5%) were called active. Not shown: some 2% with an inconclusive outcome.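 Rule for the calls: active = activation of at least 60% and not above a set upper limit (about 1 call in 100 departs from these limits); inconclusive = activation of 40% to 60%, or above that upper limit; inactive = activation under 40%.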 Some of the results follow.

Sequence of UniProt O75388 (O75388 whole entry, looked up, the tested form may be a part): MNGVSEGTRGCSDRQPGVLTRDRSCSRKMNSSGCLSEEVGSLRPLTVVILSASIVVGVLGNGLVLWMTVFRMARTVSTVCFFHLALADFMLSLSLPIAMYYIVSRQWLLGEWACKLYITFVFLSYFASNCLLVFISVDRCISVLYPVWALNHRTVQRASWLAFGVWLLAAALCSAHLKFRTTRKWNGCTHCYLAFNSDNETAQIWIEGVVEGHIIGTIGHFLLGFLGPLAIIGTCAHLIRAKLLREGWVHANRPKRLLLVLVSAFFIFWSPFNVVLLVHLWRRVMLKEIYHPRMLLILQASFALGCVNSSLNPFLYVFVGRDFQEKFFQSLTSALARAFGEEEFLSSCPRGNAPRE

The target in this test is Probable G-protein coupled receptor 32 (Homo sapiens) (UniProt O75388). Kind of test: qHTS for Agonists of Human Resolvin D1 Receptor DRV1. Note: 0% is about no effect. Particulars: CHO-K1 GPR32 beta-arrestin PathHunter luminescence, 90 min; at 76.9 µM; active compounds read high; zero percent set by DMSO-only wells. The gist of the method:
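GPR32 activation in stably transfected CHO-K1 cells, detected as beta-arrestin recruitment by enzyme-fragment complementation. Compound exposure: 90 min, 37 °C.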
On to `CCOCCCn1c(SCC(=O)Nc2cccc(OC)c2)nc2ccccc2c1=O`, for which the activation is inactive: -20.3%.

Turning to `CN(C)C/C=C(/c1ccc(Br)cc1)c1cccnc1`, the activation was inactive: -1.08% and inactive: -20.2%.

Take `CCOc1ccccc1CNC(=O)c1cnc2sc(N3CCCC3)nn2c1=O`: the activation is inactive: -11.9%.

As to `CCC(CO)Nc1ncnc2c1cnn2-c1ccc(C)cc1` (centres undefined), the activation is inactive: 14.8%.

`O=C(NCc1ccc2c(c1)OCO2)c1ccc2c(c1)N(Cc1ccc(F)cc1)C(=O)c1ccccc1S2=O` (centres undefined): the activation was inactive: -11.9%.

With `CCOCCc1nn2c(=O)cc(COC(=O)c3cccs3)nc2s1`, the activation is inactive: -2.25%.

Regarding `Cc1ccc2nc(N(Cc3cccnc3)C(=O)c3ccc4c(c3)OCCO4)sc2c1`, the activation is inactive: 0.361%.

With `CCN(c1ccc(Cl)cc1)S(=O)(=O)c1nnc(NC(=O)C2CCCCC2)s1`, the activation is inactive: -13.4%.

In the case of `COc1ccccc1-c1ccnc2[nH]n(-c3ccccc3)c(=O)c12`, the activation is inactive: -42.9%.

As to `COc1ccc(Cn2ccnc2SCC(=O)NCc2ccccc2)cc1`, the activation is inactive: -11.6%.

Take `CCC1CCCCN1C(=O)c1nn(-c2ccc(C)cc2)c(=O)c2c1c1ccccc1n2C` (centres undefined): the activation was inactive: 31.5%.

In the case of `CCOc1ccc(CCNC(=O)c2cnc3sc(N4CCOCC4)nn3c2=O)cc1`, the activation is inactive: -3.02%.

In the case of `CCOc1ccc(C2C(=O)N(C3CCCCCC3)CC(=O)N2CCc2ccccc2)cc1OC` (centres undefined), the activation is inactive: -29.9%.

In the case of `Cc1ccc(C)c(S(=O)(=O)NCC(c2ccco2)S(=O)(=O)c2ccc(F)cc2)c1` (centres undefined), the activation is inactive: -10.9%.

Turning to `NCCCNCCCCNCCCN`, the activation was inactive: -2.24%.

`CCOc1ccc(C(=O)Nc2ccc(S(=O)(=O)N3CCCCC3c3cccnc3)cc2)cc1` (centres undefined): the activation is inactive: 11.4%.

Turning to `Cc1cccc(N2CCN(c3nc4ccccc4c(=O)n3-c3ccc(Cl)cc3)CC2)c1C`, the activation was inactive: -17.9%.

With `CCc1cccc(C)c1NC(=O)Cn1c(=O)cc(C(F)(F)F)c2c(C)nn(C)c21`, the activation was inactive: 14.8%.

As for `Cc1noc(C)c1S(=O)(=O)N(CC(=O)NCc1ccccc1Cl)c1ccc(C(C)C)cc1`, the activation was inactive: -9.61%.

Turning to `O=C(Nc1ccc(F)cc1F)c1c2c(nc3ccccc13)C(=O)N(C1CCCCC1)C2`, the activation was inactive: -2.58%.

As for `Cc1ccc(N2CCN(C(=O)c3ccc4c(Cl)c5c(nc4c3)CCCC5)CC2)c(C)c1`, the activation is inactive: -4.5%.

`O=C(CSc1nc2c([nH]c3ccccc32)c(=O)n1-c1ccccc1)c1ccccc1`: the activation is inactive: -18.3%.

Regarding `O=C(Nc1c(-c2ccccc2)nc2ccccn12)c1ccc(Br)cc1`, the activation is inactive: 13.4%.

For `O=C(NCc1cccs1)C1CCN(C(=O)N2CCOc3ccccc32)CC1`, the activation is inactive: -6.96%.

For `Cc1ccc(N(CC(=O)N2CCN(c3ccc(Cl)cc3)CC2)S(=O)(=O)c2c(C)noc2C)cc1`, the activation is inactive: 10.5%.

As to `CCOC(=O)c1cc(OC(=O)c2ccc(Cl)cc2)n(-c2ccccc2)n1`, the activation is inactive: 12.2%.

For `COc1ccc(-c2nn(CC(=O)Nc3ccccc3F)c3c2cnc2ccc(F)cc23)cc1`, the activation is inactive: 25.6%.

For `COc1ccc(C2C(=O)N(C3CCCCC3)CC(=O)N2Cc2ccccc2Cl)cc1OC` (centres undefined), the activation is inactive: -9.35%.

In the case of `COc1ccc(CN2COc3ccc4c(-c5ccc(OC)cc5)cc(=O)oc4c3C2)cc1`, the activation was inactive: -5.06%.

Consider `CCc1ccc(-n2nc(C)c3c(C(=O)NCCc4ccc(OC)c(OC)c4)cc(C)nc32)cc1`, for which the activation was inactive: -16.6%.

Regarding `COc1ccc(N2CCN(S(=O)(=O)CCNC(=O)c3ccc(C(F)(F)F)cc3)CC2)cc1`, the activation was inactive: 1.1%.

With `CCN(CC)CCNC(=O)c1cc(Cl)c(N)cc1OC`, the activation was inactive: -16.1% and inactive: -1.05%.

With `COc1ccc(CNC(=O)Cn2ncn3nc(-c4cccs4)cc3c2=O)cc1`, the activation was inactive: -2.82%.

`Cc1ccc(-c2nc(S(=O)(=O)c3ccc(C)cc3)c(N3CCN(c4ccccc4)CC3)o2)cc1`: the activation is inactive: -26.4%.

As for `Cc1ccc(C)c(N2CCN(CCCNC(=O)Cn3ncc4c([nH]c5ccccc54)c3=O)CC2)c1`, the activation is inactive: 9.75%.

`CCc1ccc(CNC(=O)c2ccc3nc(C(C)C)oc3c2)cc1`: the activation was inactive: -21.4%.

On to `CC(=O)N1CCC2(CC1)OC(=O)C(C)=C2C(=O)NCc1ccc(Cl)cc1`, for which the activation is inactive: -3.53%.

Take `Cc1nn(-c2nc(-c3ccc(F)cc3)cc(C(F)(F)F)n2)c(C)c1Cl`: the activation was inactive: -18.8%.

For `CC1=NN(c2ccccc2)C(=O)C1`, the activation is inactive: 49.3%.

Regarding `O=C(Nc1ccc2oc(-c3cccnc3)nc2c1)c1ccc(-c2ccccc2)o1`, the activation was inactive: -0.531%.

Regarding `COc1ccc(OC(C)c2nc3ccccc3[nH]2)cc1` (centres undefined), the activation was inactive: -4.9%.

With `CCCc1ccc(OCC(=O)N2CCN(C(=O)COc3ccc(CCC)cc3OC)CC2)c(OC)c1`, the activation was inactive: -5.16%.

In the case of `CCc1ccc(NC(=O)C(=O)NCC(c2cccnc2)N2CCN(C)CC2)cc1` (centres undefined), the activation was inactive: 3.34%.

Take `COc1cc(NC(=O)C(CC(C)C)NS(=O)(=O)c2ccc3c(c2)oc(=O)n3C)c(C(=O)O)cc1OC` (centres undefined): the activation is inactive: 10%.

Consider `CCOC(=O)c1ccc(NC(=O)c2csc3c2CCCCC3)cc1`, for which the activation was inactive: 7.98%.

In the case of `CCOc1ccc(NC(=O)Cn2cc(C(=O)c3ccc(C)c(C)c3)c(=O)c3cc(OC)c(OC)cc32)cc1`, the activation was inactive: 2.44%.

As to `COC(=O)c1ccc(Cl)cc1NC(=O)N(C)CCc1c(C)nn(C)c1C`, the activation was inactive: -0.905%.

For `CCOc1ccc(NC(=O)C(=O)NCCc2csc3nc(-c4ccccc4F)nn23)cc1`, the activation is inactive: 14.5%.

Turning to `Cc1ccc(CN2CCN(C3CCN(S(=O)(=O)c4ccc(C)cc4)CC3)C(=O)C2=O)cc1`, the activation was inactive: -10.5%.

For the compound `O=c1cc(-c2ccc(F)cc2)nc(SCc2nc(-c3ccccc3Cl)no2)[nH]1`, the activation is inactive: -10.5%.

As to `CCC1CCCCN1C(=O)CSc1nc2c([nH]c3ccccc32)c(=O)n1-c1cccc(OC)c1` (centres undefined), the activation was inactive: -2.74%.

Turning to `Cc1ccc(-n2ccnc(NCCc3ccc(S(N)(=O)=O)cc3)c2=O)cc1C`, the activation was active: 95.2%.

Turning to `Cc1oc(-c2cccc(Cl)c2)nc1CSc1nc2ncccc2[nH]1`, the activation is inactive: -2.72%.

On to `COc1ccc(CCn2c3c(c(=O)[nH]c2=O)C(NC(=O)c2ccccc2OC)(C(F)(F)F)C(=O)N3)cc1OC` (centres undefined), for which the activation is inactive: 19.9%.

Turning to `COc1cc(C(=O)Nc2ccc(NC(=O)c3ccc(Br)cc3)cc2)cc(OC)c1OC`, the activation was inactive: 38%.

With `Cc1cccc(N2CCN(C(=O)c3cc4c(=O)n(C)c5ccccc5c4s3)CC2)c1C`, the activation was inactive: 44.5%.

Turning to `O=C(O)c1ccc2nc(-c3cc4cc(F)ccc4oc3=O)[nH]c2c1`, the activation is inactive: 11.6%.

For the compound `O=C(COc1ccccc1Cl)Nc1ccc(Cl)c(-c2nc3ccccc3o2)c1`, the activation is inactive: -16.4%.

In the case of `CCOc1ccc(-c2cc(NC(=O)c3ccc(C)cc3)c(C(=O)OC)s2)cc1`, the activation was inactive: 3.46%.

For `Cc1cc(C)cc(-n2c(SCC(=O)NCC3CCCO3)nc3c([nH]c4ccccc43)c2=O)c1` (centres undefined), the activation was inactive: -15.9%.

As to `COc1ccc2c(c1)-c1nc(NC(=O)c3ccc(C)cc3)sc1CC2`, the activation was inactive: -22.9%.

Take `Cn1cnc2c1c(=O)[nH]c(=O)n2C`: the activation was inactive: -11.1% and inactive: -1.12%.

Regarding `CCCC(=O)C1=C(c2ccc(C)c(C)c2)N(C(=O)CCC)n2c(CC)nnc2S1`, the activation is inactive: -59.3%.

Turning to `COc1ccc(-c2noc(-c3ccc(NCCc4ccccc4)c([N+](=O)[O-])c3)n2)cc1OC`, the activation is inactive: -1.25%.

As to `N#C/C(=C\c1c[nH]c2ccccc12)C(=O)c1ccc(O)c(O)c1`, the activation is inactive: -5.74%.

Take `CC(C)c1ccc(NS(=O)(=O)c2ccc3[nH]cc(C(=O)N4CCCC4)c(=O)c3c2)cc1`: the activation is inactive: 4.24%.

`CCn1ccc2cc(S(=O)(=O)N3CCCN(C(=O)Nc4cc(Cl)ccc4C)CC3)ccc21`: the activation is inactive: 33.7%.

Turning to `COc1ccc(OC)c(CNC(=O)CCCn2nc(C)c3c(C)n(-c4ccc(C)cc4)nc3c2=O)c1`, the activation was inactive: -5.37%.

Regarding `O=C(Cn1ncc2c3ccccc3n(Cc3ccccc3)c2c1=O)Nc1ccccc1C(F)(F)F`, the activation was inactive: 9.56%.

Regarding `CCOc1ccc(NC(=O)Nc2ccc3snnc3c2)cc1`, the activation was active: 86.9%.

In the case of `COc1cccc(CNC(=O)Cc2c(C)c3c(cc(C)c4c(C)coc43)oc2=O)c1`, the activation is inactive: -4.62%.

Turning to `Cc1ccc(C)c(N2CCN(C(=O)c3ccc4c(c3)c(C)c(C)n4C)CC2)c1`, the activation is inactive: -29.7%.

On to `COc1ccc(Nc2nnc(-c3ccc(C)c(S(=O)(=O)N4CCN(C)CC4)c3)c3ccccc23)cc1`, for which the activation was inactive: -0.599%.

As to `Cc1nc2sccn2c(=O)c1S(=O)(=O)NCc1ccccc1`, the activation is inactive: 4.79%.

Regarding `COC(=O)c1ccc(OC)c(CN2CCCN(Cc3ccc(C)cc3)S2(=O)=O)c1`, the activation is inactive: -9.14%.

Consider `COc1cc2c(cc1OC)C(COc1ccc3c(C)cc(=O)oc3c1)N(C(=O)c1ccc(C)c(C)c1)CC2` (centres undefined), for which the activation is inactive: -1.47%.

Consider `COc1ccc(Cl)cc1C(=O)NCC(c1ccc(N(C)C)cc1)N1CCOCC1` (centres undefined), for which the activation was inactive: -13.6%.

Regarding `Cc1oc2c(c1C(=O)Nc1ccc(Cl)cc1F)C1=NCCN1C=N2`, the activation is inactive: 6.48%.

`Cc1cccc(C)c1OCC(=O)N(Cc1ccc(Cl)cc1)CC1CCCO1` (centres undefined): the activation is inactive: -18.8%.

Turning to `CCCN(Cc1cccs1)C(=O)Nc1ccccc1C`, the activation was inactive: -15.9%.

As to `CC1CCCN(c2csc3ccccc3c2=O)C1` (centres undefined), the activation was inactive: -24.2%.

Turning to `CC(C)c1nn2c(=O)cc(COC(=O)c3ccccc3NC(=O)c3cccs3)nc2s1`, the activation was inactive: -4.96%.

On to `Cn1c(=O)c2c(nc(NCCc3ccccc3)n2Cc2ccc(Cl)c(Cl)c2)n(C)c1=O`, for which the activation was inactive: 1.33%.

As to `O=C(O)CCNC(=O)c1ccccc1`, the activation was inactive: -5.58%.
